Experimental data taken from patent publication US20110166106A1, “ARTEMISININ AND DERIVATIVES THEREOF AS ANTIVIRALS” (priority 2008, published 2011).

Legend:
HHV-6A (strain U1102) = assay: Inhibition of p41/38 early protein production in HSB-2/U1102 cells, Western blot; assay type: cell-based; details: 3 days, 1.5 μM and 5 μM ART identical results
HHV-6B, Z-29 variant = assay: Inhibition of p41 early protein production in HHV-6B-infected MOLT-3 cells, Western blot; assay type: cell-based; details: 3 days, ART at 1.5 μM or 15 μM, mAb 6A5D12
Method: MOLT-3 cells are infected with HHV-6B, Z-29 variant, and cultured in the presence or absence of ART for 3 days. Western blot analysis is performed using mAb 6A5D12, which detects both HHV-6A and HHV-6B variants of p41, an Early Protein of HHV-6. […] Accordingly, it is shown that ART interferes with progression of HHV-6 infection from the latent stage characterized by IE to an active stage where p41 would be produced.

HHV-6B strain Z-29 [1] = assay: Viral DNA synthesis by PCR in HHV-6B-infected MOLT-3 cells; assay type: cell-based; details: 3 days, compared with GCV
Method: (§1) MOLT-3 cells infected with HHV-6B strain Z-29 are treated with ART, or with gancyclovir (GCV) as a control, for 3 days. Viral DNA synthesis is then tested by PCR. Cells are then fixed with acetone treatment.

HHV-6B strain Z-29 [2] = assay: Immunofluorescence antibody test for HHV-6 proteins in HHV-6B-infected MOLT-3 cells; assay type: cell-based; details: 3 days
Method: as §1

HSV-1 = assay: ART sensitivity of HSV-1; assay type: cell-based
Description: Previously, the strong anti-cytomegaloviral activity of ART was published by our group (Efferth et al., 2006; Kaptein et at, 2006). In these studies, the inhibitory potential of ART towards various cytomegaloviruses (human and animal CMVs) was described, both in cell culture models and in infected animals (Kaptein et al., 2006). […] However, the current status of investigations strongly encourages the use of ART in anti-herpesviral therapy. […] Concerning the chances of ART in anti-herpesviral therapy, particular interest would be in clinically complex situations which cannot be resolved by conventional antiviral treatment, such as organ and bone marrow transplantations with life-threatening herpesvirus reactivations, where conventional antivirals such as ganciclovir cannot safely be used because they would be toxic to the newly introduced tissue or stem cells.

[3] = tested on: drug-resistant cytomegalovirus; details: advanced stage drug-resistant cytomegalovirus infection, after hematopoietic stem cell transplantation; cited from earlier work
[4] = tested on: human cytomegalovirus (HCMV, strain AD169); assay: Standard plaque reduction assay, HCMV
[5] = tested on: drug-resistant HHV-6B isolates; assay: Inhibition of drug-resistant HHV-6B isolates in MT4 cells; details: isolates resistant to PFA, GCV and CDV, compared with the drug each isolate resists
[6] = tested on: HST strain (HHV-6 B), wild-type; details: MT4 cells; cited from earlier work
[7] = tested on: GCVR1 (HST-derived HHV-6 B); details: GCVR1, MT4 cells; cited from earlier work
[8] = tested on: GPFAR1 (GCVR1-derived HHV-6 B); details: GPFAR1, MT4 cells; cited from earlier work
[9] = tested on: CDVR1 (HST-derived HHV-6 B); details: CDVR1, MT4 cells; cited from earlier work
cytomegaloviruses = details: Kaptein et al, 2006; cited from earlier work

SMILES	levels of viral p41/38 (HHV-6A (strain U1102))	production of detectable amounts of p41 (HHV-6B, Z-29 variant)	viral DNA synthesis by PCR (HHV-6B strain Z-29 [1])	formation of HHV-6 viral proteins (HHV-6B strain Z-29 [2])	sensitivity towards ART (HSV-1)	antiviral effect in a patient [3]	ART sensitivity of HCMV [4]	inhibition of viral infection [5]	IC50 [6] [µM]	IC50 [7] [µM]	RI (resistance index), ratio of IC50 to HST [7]	IC50 [8] [µM]	RI (resistance index), ratio of IC50 to HST [8]	IC50 [9] [µM]	RI (resistance index), ratio of IC50 to HST [9]	antiviral activity (cytomegaloviruses)
C[C@H]1[C@H](OC(=O)CCC(=O)O)O[C@@H]2O[C@@]3(C)CC[C@H]4[C@H](C)CC[C@@H]1[C@@]24OO3 [ART, artesunate]	below the detection limit	blocks production of detectable amounts of p41	blocks viral DNA synthesis more effectively than does GCV	inhibited formation of HHV-6 viral proteins	sensitive	potent antiviral	marked ART-sensitivity	greater inhibition								
O=C(O)P(=O)(O)O [PFA, foscarnet]									15 ± 7	18.9 ± 5.4	[1.3]	218 ± 17.3	[14.6]	17.8 ± 6.9	[1.2]	
Nc1nc(O)c2ncn(COC(CO)CO)c2n1 [GCV, ganciclovir]	did not show a similar degree of inhibition								3.1 ± 0.8	25.9 ± 2.8	[8.4]	25.7 ± 3.9	[8.4]	12.9 ± 4.3	[4.2]	
C[C@@H]1CC[C@H]2[C@@H](C)C(=O)O[C@@H]3O[C@@]4(C)CC[C@@H]1[C@]32OO4 [artemisinin, Artemisinin]																relatively low
Nc1ccn(C[C@@H](CO)OCP(=O)(O)O)c(=O)n1 [CDV, cidofovir]									1.8 ± 0.9	57.8 ± 27.6	[32.6]	12.5 ± 4.4	[7.0]	213 ± 77.3	[118.4]	
